Reference: publication PMC8614738
These are yes or no findings as the source states them, for the method shown. Some entries that bind do so weakly or less than the wild type.

Protein sequences, listed by entry. Tags and fused reporters are not part of them.
UniProt P0CE47: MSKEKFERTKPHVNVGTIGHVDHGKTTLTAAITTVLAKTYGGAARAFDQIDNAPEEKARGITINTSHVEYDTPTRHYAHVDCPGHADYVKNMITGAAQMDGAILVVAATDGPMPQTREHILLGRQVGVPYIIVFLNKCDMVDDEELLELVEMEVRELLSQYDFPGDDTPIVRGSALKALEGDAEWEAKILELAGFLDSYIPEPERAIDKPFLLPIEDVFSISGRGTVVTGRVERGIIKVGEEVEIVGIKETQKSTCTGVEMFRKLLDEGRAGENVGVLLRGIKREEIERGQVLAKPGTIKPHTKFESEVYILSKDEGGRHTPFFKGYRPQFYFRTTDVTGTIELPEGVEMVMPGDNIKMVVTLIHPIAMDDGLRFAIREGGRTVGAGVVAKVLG

How the values were obtained:
[1] = biological target: elongation factor thermo-unstable (EF-Tu), native monomeric (UniProt P0CE47); experiment: ITC; single injection of 140 μL Hsp33 (165 μM) into 1.4 mL EF-Tu (16.5 μM) at 35 °C; 50 mM Tris-HCl pH 7.4, 50 mM NaCl, 1 mM MgSO4, 50 μM ZnSO4, 1 mM DTT; both purified
[2] = biological target: elongation factor thermo-unstable (EF-Tu), native monomeric (UniProt P0CE47); experiment: SEC; analytical gel filtration of the triple mixture EF-Tu:EF-Ts:Hsp33, 0.1 mM each, pre-incubated at 35 °C for 30 min; same column and buffer; fractions on SDS-PAGE; both purified
[3] = biological target: elongation factor thermo-unstable (EF-Tu), native monomeric (UniProt P0CE47); experiment: SEC; analytical gel filtration of double mixtures, HiLoad 16/600 Superdex 200, 0.1 mM of each protein pre-incubated at 35 °C for 30 min; 50 mM Tris-HCl, 50 mM NaCl, 1 mM MgSO4, 2 mM DTT, pH 7.4, about 22 °C; fractions on SDS-PAGE; both purified
[4] = biological target: oligomeric EF-Tu (^OligoEF-Tu), unfolded (UniProt P0CE47); experiment: as above

Measured: binding

B1: heat shock protein 33 (Hsp33), reduced zinc-bound (protein, UniProt P0A6Y5 1-292)
chain: MPQHDQLHRYLFENFAVRGELVTVSETLQQILENHDYPQPVKNVLAELLVATSLLTATLKFDGDITVQLQGDGPMNLAVINGNNNQQMRGVARVQGEIPENADLKTLVGNGYVVITITPSEGERYQGVVGLEGDTLAACLEDYFMRSEQLPTRLFIRTGDVDGKPAAGGMLLQVMPAQNAQQDDFDHLATLTETIKTEELLTLPANEVLWRLYHEEEVTVYDPQDVEFKCTCSRERCADALKTLPDEEVDSILAEDGEIDMHCDYCGNHYLFNAMDIAEIRNNASPADPQVH
binds: [1] | [2] | [3] | [4]
